For series [1], the target named is rat trkC (Rattus norvegicus, UniProt Q03351). The series is described as follows: Direct ELISA binding to rat trkC-IgG. The settings on record: for recognition of rat trkC compared with human trkC: FIG. 3, Mabs 1 μg/ml. (In general: An ELISA detects its analyte on a solid surface through an enzyme-linked reagent.)
Series [2] concerns cisplatinum induced neuropathy. The series is described as follows: Cisplatinum induced neuropathy in adult rats, H-wave sensory conduction velocity. Format: in vivo, rat. Particulars: 1 mg/kg once a week IV for four weeks, continued cisplatinum.
The nature of series [3]: In vivo half-life and bioavailability, serum levels after IV or subQ injection in rats. The settings on record: rat.
The test system of series [4] is pyridoxine neuropathy. Put plainly: Pyridoxine neuropathy in rats, DRG marker mRNA expression by TAQMAN RT-PCR. Format: in vivo, rat.
In series [5] the test system is pyridoxine neuropathy. Put plainly: Pyridoxine neuropathy in rats, M-wave and H-wave electrophysiology. Format: in vivo, rat. Particulars: pyridoxine 400 mg/kg twice daily for 8 days; cotreatment.
Series [6] relates to pyridoxine neuropathy. Put plainly: Pyridoxine neuropathy in rats, horizontal ladder proprioceptive test. Format: in vivo, rat. The settings on record: pyridoxine 400 mg/kg twice daily for 8 days; cotreatment.
Where [7] appears, read: pyridoxine 600 mg/kg daily, Mab at either 1 mg/kg or 5 mg/kg.

The results in this text go back to patent US7384632B2, “Agonist anti-trk-C monoclonal antibodies” (Genentech, Inc., priority 2000, dated 2008).

In general, half-life refers to the time in which the quantity being followed falls by half. A higher half-life goes with slow decline.

rat trkC, sequence (Q03351 32-429 limits assumed): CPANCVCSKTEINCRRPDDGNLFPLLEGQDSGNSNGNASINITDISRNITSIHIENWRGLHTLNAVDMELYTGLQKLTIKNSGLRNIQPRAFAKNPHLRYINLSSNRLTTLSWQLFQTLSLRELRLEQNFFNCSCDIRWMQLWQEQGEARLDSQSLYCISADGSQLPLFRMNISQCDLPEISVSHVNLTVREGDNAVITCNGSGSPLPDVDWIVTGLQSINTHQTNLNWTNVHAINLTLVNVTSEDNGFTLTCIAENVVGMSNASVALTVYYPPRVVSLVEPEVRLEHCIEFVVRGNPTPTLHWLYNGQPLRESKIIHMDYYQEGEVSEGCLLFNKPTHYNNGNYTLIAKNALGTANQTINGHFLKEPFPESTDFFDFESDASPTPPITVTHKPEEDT

B1: Mab 6.4.1: human IgG2 agonist anti-trkC monoclonal antibody; hybridoma ATCC PTA-2150; heavy chain SEQ ID NO: 46, light chain SEQ ID NO: 53 (antibody, listed as Homo sapiens, V domains shown)
VH: NQVQLQESGPGLVRPSETLSLTCTVSGGSISTYYWNWIRQPAGKGLEWIGRIYTSGSTNYNPSLKSRVTMSVDTSKNQFSLKLSSVTAADTAVYYCARDGGYSNPFDWGQGTLVTVSSC
VL: NDIQMTQSPDSLAVSLGERATINCKSSQSVSYSSNNKNYLAWYQQKPGQPPKLLIYWASTRESGVPDRISGSGSGTDFTLTISSLQAEDVAVYYCQQHYNTPLTFGGGTKVEIKRC
For B1, in series [1], the “Binds Rat trkC” value was “YES” and the “recognition of rat trkC compared with human trkC” value was “significantly recognized rat trkC”. The “sensory conduction velocity (H-wave)” value in series [2] is given as “improvement of this lowered conduction velocity”.

B2: Mab 2256: murine IgG1 agonist anti-trkC monoclonal antibody; hybridoma ATCC PTA-2152; heavy chain SEQ ID NO: 44, light chain SEQ ID NO: 51 (antibody, V domains shown)
VH: NQVQLQQPGAELVKPGASVKLSCKASGYTFTSYWMHWVKQRPGQGLEWIGEIYPSNGRTNYNEKFKSKATLTVDKSSSTAYMQLSSLTSEDSAVYYCARKYYYGNSYRSWYFDVWGAGTTLTVSSC
VL: NDIVLTQSPASLAVSLGQRATIS[left out - about 80 residues]FGGGTKLEMKRC
modifications: Murine
As to B2, in series [1], the “Binds Rat trkC” value is on record as “YES” and the “recognition of rat trkC compared with human trkC” value is “recognized rat trkC to a significant extent”. In series [3] (1 mg/kg IV, 5 mg/kg subQ, serum levels by KIRA), this molecule yielded a half-life of 220 h. The “bioavailability after subcutaneous administration” value in series [3] (5 mg/kg subQ vs 1 mg/kg IV) is reported as 69%. Besides, in series [2], the “sensory conduction velocity (H-wave)” value was “improvement of this lowered conduction velocity”. Also, the trkC expression result in series [4] (pyridoxine 400 mg/kg daily, Mab 5 mg/kg) is on record as “increases trkC expression over control level”. The “NFL and NSE expression” value in series [4] (pyridoxine 400 mg/kg daily, Mab 5 mg/kg subQ weekly) was “completely blocked this decrease in expression”. For the same molecule, in series [4] (pyridoxine 400 mg/kg daily, Mab dose 1 mg/kg), the “NFL and NSE expression” value is reported as “no appreciable effect”. Moreover, in series [4] (setting [7]), the “NFL and NSE expression” value is on record as “slight trend towards protection”; the “trkC and calretinin expression” value was “significantly but not completely blocks the decrease in expression”. Further, in series [5], the “amplitude of the sensory response (H-wave) compared to the motor response (M-wave)” value was “significantly blocked the pyridoxine-induced decrease in the sensory amplitude”. In addition, the “hindpaw placement on horizontal ladder (good placements, footfaults, near footfaults)” value in series [6] was “smaller decline in good placements and smaller increases in footfaults and near footfaults”.
